Laboratory results published in the supplement of paper PMC10126150.
Sequences with one replicate were seen in a single cluster, so their values are uncertain.

What follows are sequences tested on ATP (assay: switch fluorescence ratio, 500 uM ATP over buffer (Cy3 cluster intensity, sum of 5 cycles each) (fold (ratio)); higher = stronger signal-on switching upon ATP binding; sequences stand for … in TCGTCGGCAGCGTCAGATGTGTATAAGAGACAGTTTTTTTTTTTTTTTTTTTTTTTTT…TC). Conditions: aptamer strand: ATP DNA aptamer (quencher-CACCTGGGGGAGTATTGCGGAGGAAGG + anchor), 100 nM annealed; ATP concentration: 500 uM; one replicate.
Procedure, shortened: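 Values give the fluorescence ratio for each switch-domain sequence, averaged from per-cluster ratios of summed target-cycle to summed buffer-cycle Cy3 intensity. The Cy3-labelled switching-strand clusters sat on a modified Illumina MiSeq flow-cell, were annealed to 100 nM quencher-labelled ATP aptamer, and were imaged in selection buffer, then after 15 min with 500 uM ATP at 22 °C. Five cycles ran with NaOH stripping and re-annealing between them, and clusters outside 100-1000 RFU were excluded.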
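Also: ATP exposure 15 min at 22 °C before imaging.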

| Sequence | switch fluorescence ratio |
| --- | --- |
| TGCTTCGGG | 1.02 |
| TGCTTCTCGG | 0.987 |
| TGCTTGAAAT | 0.999 |
| TGCTTGGGA | 1.01 |
| TGCTTTAATG | 0.933 |
| TGGAAAAAAT | 0.99 |
| TGGAAAAACG | 1.14 |
| TGGAACCAAT | 0.969 |
| TGGAACCCA | 1.01 |
| TGGAAGAGCG | 1.01 |
| TGGAAGGCA | 0.987 |
| TGGAATACGC | 1.57 |
| TGGAATGGTA | 0.968 |
| TGGACGAGTG | 1.01 |
| TGGACTTTAC | 1.24 |
| TGGAGCCTGC | 0.97 |
| TGGAGGAGG | 0.986 |
| TGGAGGGCGA | 0.987 |
| TGGAGTCGCT | 1.01 |
| TGGAGTGTGT | 1.01 |
| TGGAGTTCAT | 0.981 |
| TGGATAACAG | 0.967 |
| TGGATAATTG | 1.07 |
| TGGATATTCA | 1.01 |
| TGGATGAAC | 1.02 |
| TGGATTCACG | 0.998 |

| Sequence | switch fluorescence ratio |
| --- | --- |
| TGGATTGTCT | 0.984 |
| TGGCACATTG | 1.02 |
| TGGCACTATC | 1.01 |
| TGGCACTATT | 0.965 |
| TGGCAGCGGG | 1.01 |
| TGGCAGGCCT | 0.997 |
| TGGCATAGCG | 1.02 |
| TGGCATAGTG | 1.05 |
| TGGCATGTCC | 1 |
| TGGCATTCGG | 1.01 |
| TGGCATTGGC | 0.996 |
| TGGCCAGAAA | 1.05 |
| TGGCCCATCC | 1.02 |
| TGGCCCTAAA | 1.03 |
| TGGCCGGACG | 0.971 |
| TGGCCGGGA | 1.01 |
| TGGCCGTAAT | 1.13 |
| TGGCCTCTTT | 0.987 |
| TGGCGCCGCC | 0.987 |
| TGGCGCCGGC | 0.878 |
| TGGCGCTGGC | 0.968 |
| TGGCGGCGGT | 0.973 |
| TGGCTAACGA | 1.02 |
| TGGCTGAAGT | 1.06 |
| TGGCTTTTGC | 0.948 |
| TGGGACGAAT | 0.971 |

| Sequence | switch fluorescence ratio |
| --- | --- |
| TGGGAGCCTA | 0.951 |
| TGGGAGGAAG | 0.985 |
| TGGGATAAG | 0.986 |
| TGGGATACTA | 1.03 |
| TGGGATCGG | 1.01 |
| TGGGATCTGC | 0.941 |
| TGGGATGAA | 1.04 |
| TGGGATTCGA | 1.07 |
| TGGGCAACCC | 1.17 |
| TGGGCACTTG | 1.04 |
| TGGGCATTGA | 0.891 |
| TGGGCCAGTC | 0.975 |
| TGGGCCCATC | 1.04 |
| TGGGCGAGTA | 1.01 |
| TGGGCGCTCG | 1 |
| TGGGGAGACT | 1.03 |
| TGGGGAGATC | 1.1 |
| TGGGGAGGTC | 1 |
| TGGGGATGAG | 1.07 |
| TGGGGATGCG | 0.983 |
| TGGGGCATGG | 0.987 |
| TGGGGCCCCT | 0.966 |
| TGGGGGTAG | 0.994 |
| TGGGGTACTC | 1.05 |
| TGGGGTGATG | 0.968 |
| TGGGGTTTC | 0.946 |

| Sequence | switch fluorescence ratio |
| --- | --- |
| TGGGTACTAT | 1.03 |
| TGGGTCCCTG | 1.05 |
| TGGGTGCCGC | 0.884 |
| TGGGTGGCCG | 0.989 |
| TGGGTTCCGT | 0.991 |
| TGGGTTTGAC | 1.04 |
| TGGTAATTG | 0.964 |
| TGGTATAACA | 1.04 |
| TGGTATATGG | 0.954 |
| TGGTATCAAG | 1 |
| TGGTATCAT | 0.973 |
| TGGTATCCTG | 1.02 |
| TGGTATTACG | 1.01 |
| TGGTATTGGG | 1.1 |
| TGGTATTTT | 1 |
| TGGTCAAGTT | 1.02 |
| TGGTCATCTC | 1.01 |
| TGGTCCGCGC | 1.57 |
| TGGTCCTGCG | 0.998 |
| TGGTCGATTG | 1.02 |
| TGGTCGCGGC | 1.01 |
| TGGTCGGCG | 0.954 |
| TGGTCGTTGC | 0.932 |
| TGGTCTGGTC | 1.01 |
| TGGTCTTGGG | 0.985 |
| TGGTCTTTAA | 1.05 |

| Sequence | switch fluorescence ratio |
| --- | --- |
| TGGTGAGCAC | 1.07 |
| TGGTGCAGCG | 0.963 |
| TGGTGCCTGG | 1 |
| TGGTGTGGCT | 1.02 |
| TGGTGTTAAA | 0.997 |
| TGGTTAAAGA | 1.01 |
| TGGTTACTAT | 1.03 |
| TGGTTAGTTC | 0.973 |
| TGGTTCTATA | 0.974 |
| TGGTTGCCCC | 1.11 |
| TGGTTTCGGG | 1.02 |
| TGGTTTCTGT | 1.01 |
| TGTAAACCAG | 0.959 |
| TGTAAAGAGT | 1 |
| TGTAAATTTC | 0.975 |
| TGTAACAGCC | 2.29 |
| TGTAAGATGG | 0.975 |
| TGTAAGATGT | 1.04 |
| TGTAAGGGCA | 1.02 |
| TGTAAGTCAA | 1.05 |
| TGTACATGTC | 1.05 |
| TGTACATTTT | 1.03 |
| TGTACCGGGG | 1.11 |
| TGTACCTACA | 1.19 |
| TGTACGGGAC | 1.3 |
| TGTAGACCGT | 0.969 |

| Sequence | switch fluorescence ratio |
| --- | --- |
| TGTAGATGTG | 1 |
| TGTAGCAAAG | 1.99 |
| TGTAGGGCTC | 1.05 |
| TGTAGTAGAA | 0.992 |
| TGTAGTGGGT | 0.995 |
| TGTATAAGAG | 0.969 |
| TGTATATAAC | 0.996 |
| TGTATTATTT | 1.02 |
| TGTATTGTTT | 0.99 |
| TGTCAATCGG | 0.969 |
| TGTCACGTAG | 1.05 |
| TGTCACTTGG | 1 |
| TGTCATGCTG | 0.988 |
| TGTCATGTAA | 0.981 |
| TGTCCAAAAA | 1.02 |
| TGTCCACGGA | 1.06 |
| TGTCCCAATA | 1.03 |
| TGTCCCGGGG | 1.01 |
| TGTCCTACTG | 1.21 |
| TGTCCTTGTT | 0.969 |
| TGTCGATACA | 1.05 |
| TGTCGATTAC | 1.08 |
| TGTCGGAGCT | 1.03 |
| TGTCGGGGCT | 0.994 |
| TGTCGTGTCT | 1.04 |
| TGTCGTTATG | 0.949 |

| Sequence | switch fluorescence ratio |
| --- | --- |
| TGTCTCGAGC | 1.04 |
| TGTCTTATTA | 0.982 |
| TGTGAAGGAC | 1 |
| TGTGAATAAA | 1.02 |
| TGTGACTATC | 0.998 |
| TGTGAGAGCT | 0.986 |
| TGTGAGGAG | 1 |
| TGTGAGGTGA | 1.02 |
| TGTGATCCC | 0.993 |
| TGTGATGACC | 0.991 |
| TGTGCCTAGG | 0.989 |
| TGTGCGAAG | 0.997 |
| TGTGCGGC | 1.04 |
| TGTGCTAGCA | 1.01 |
| TGTGCTTGGT | 1.02 |
| TGTGGAGAAA | 1.05 |
| TGTGGATCC | 0.978 |
| TGTGGGCCTT | 1.03 |
| TGTGGGCGCA | 1 |
| TGTGGGTGA | 1.06 |
| TGTGGTAGTA | 1.02 |
| TGTGGTCGGC | 1.05 |
| TGTGGTCGTG | 0.985 |
| TGTGGTTTGG | 0.992 |
| TGTGTACCGT | 0.949 |
| TGTGTATCAG | 0.944 |

| Sequence | switch fluorescence ratio |
| --- | --- |
| TGTGTATGTT | 1.03 |
| TGTGTCGGAT | 1.04 |
| TGTGTGCGTG | 0.976 |
| TGTGTGTCAG | 0.979 |
| TGTGTGTCTA | 1.04 |
| TGTGTTTCGC | 0.955 |
| TGTTAAATTG | 1.03 |
| TGTTAAGCTT | 1.05 |
| TGTTAAGGAC | 1.01 |
| TGTTAAGTG | 0.95 |
| TGTTACGCTA | 1.18 |
| TGTTAGAAGG | 1.03 |
| TGTTAGGTTG | 0.949 |
| TGTTATAACG | 0.974 |
| TGTTATAATA | 1.04 |
| TGTTATGCAC | 0.978 |
| TGTTATTGAG | 0.989 |
| TGTTCAAT | 1.03 |
| TGTTCGCTTA | 1.04 |
